The values that follow come from paper PMC4336329 (PLoS ONE, 2015).

The campaign covered roughly 310,000 compounds. About 2,200 (0.71%) showed an effect of 50% or more. The effect is printed as a negative number. Some of the results follow.

For the assay, the target named is human ether-à-go-go-related gene (hERG) potassium channel (human, UniProt Q12809). Nature of the assay: primary screen, population patch clamp on CHO cells stably expressing hERG.
human ether-à-go-go-related gene (hERG) potassium channel, sequence (Q12809 whole entry, looked up): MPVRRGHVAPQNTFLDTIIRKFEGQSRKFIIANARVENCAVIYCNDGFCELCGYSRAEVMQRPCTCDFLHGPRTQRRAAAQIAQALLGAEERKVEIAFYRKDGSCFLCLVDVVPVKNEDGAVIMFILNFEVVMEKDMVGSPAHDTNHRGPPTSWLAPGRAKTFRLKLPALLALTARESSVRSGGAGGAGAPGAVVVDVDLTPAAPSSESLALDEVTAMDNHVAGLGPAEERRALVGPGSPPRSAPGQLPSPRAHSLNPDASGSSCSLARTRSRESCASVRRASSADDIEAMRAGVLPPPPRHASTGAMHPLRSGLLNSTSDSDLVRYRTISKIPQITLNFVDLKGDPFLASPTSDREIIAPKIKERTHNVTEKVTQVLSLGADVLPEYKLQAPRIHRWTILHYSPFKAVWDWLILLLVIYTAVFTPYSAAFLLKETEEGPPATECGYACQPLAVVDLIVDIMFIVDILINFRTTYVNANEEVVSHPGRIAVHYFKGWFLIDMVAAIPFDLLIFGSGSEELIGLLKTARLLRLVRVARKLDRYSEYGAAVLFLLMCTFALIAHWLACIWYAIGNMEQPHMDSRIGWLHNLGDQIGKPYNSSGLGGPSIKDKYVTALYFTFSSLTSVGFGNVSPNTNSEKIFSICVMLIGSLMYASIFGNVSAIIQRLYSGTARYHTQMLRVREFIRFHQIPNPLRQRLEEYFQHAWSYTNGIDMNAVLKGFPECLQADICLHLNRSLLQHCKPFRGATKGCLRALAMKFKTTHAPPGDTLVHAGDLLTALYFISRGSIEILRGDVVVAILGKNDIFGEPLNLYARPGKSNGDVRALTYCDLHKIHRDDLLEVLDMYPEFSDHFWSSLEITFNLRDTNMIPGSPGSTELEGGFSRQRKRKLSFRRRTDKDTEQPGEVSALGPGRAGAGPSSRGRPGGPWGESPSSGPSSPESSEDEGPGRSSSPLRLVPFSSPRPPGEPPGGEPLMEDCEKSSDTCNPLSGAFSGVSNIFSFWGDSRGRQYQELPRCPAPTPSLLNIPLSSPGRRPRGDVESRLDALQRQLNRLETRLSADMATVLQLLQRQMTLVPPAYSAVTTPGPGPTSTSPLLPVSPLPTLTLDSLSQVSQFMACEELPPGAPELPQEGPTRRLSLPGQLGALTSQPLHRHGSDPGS
Consider `Cc1ccc(CNc2ccc3c(c2)ncn3C(C)(C)C)cc1`, for which the “hERG current change (%, negative = inhibition) at 1uM” value was -18.2%.
In the case of `CCOP(C)(=O)C1(C(=O)OCc2ccccc2)CC1` (stereo not shown), the “hERG current change (%, negative = inhibition) at 1uM” value was found to be 15.6%.
`O=C(c1cc2cc(Br)ccc2oc1=O)N1CCN(c2ccccn2)CC1`: the “hERG current change (%, negative = inhibition) at 1uM” value was -5.91%.
For the molecule `CCOC(=O)C1CCN(C(=O)c2cccnc2Oc2ccc(Cl)cc2)CC1`, the “hERG current change (%, negative = inhibition) at 1uM” value is recorded as -8.77%.
With `CC(C)(C)C(=O)NC(Nc1cccc2cccnc12)C(Cl)(Cl)Cl` (stereo not shown), the “hERG current change (%, negative = inhibition) at 1uM” value is recorded as 0.891%.
Take `COC(=O)C(C)Sc1nnc(Cc2cc(=O)[nH]c(=O)[nH]2)n1-c1ccc(Cl)cc1` (stereo not shown): the “hERG current change (%, negative = inhibition) at 1uM” value came to 17.2%.
In the case of `CCCCC(CC)CNC(=O)CCS(=O)(=O)c1cccc2nsnc12` (stereo not shown), the “hERG current change (%, negative = inhibition) at 1uM” value worked out at 12.2%.
For `CCOC(=O)c1c(C)[nH]c(N=Nc2ccc(OC)cc2)c1C`, the “hERG current change (%, negative = inhibition) at 1uM” value came out at 10.7%.
As for `COc1cc2c(c(OC)c1)C(=O)OC(C)CCCC(=O)CCCCC2` (stereo not shown), the “hERG current change (%, negative = inhibition) at 1uM” value came out at 15.3%.
As for `COCCCNc1nc2c(-c3cccc(C)c3)nnn2c2ccc(Cl)cc12`, the “hERG current change (%, negative = inhibition) at 1uM” value is given as 13.3%.
Regarding `Cc1nccc(-c2cc(-c3ccc(Cl)cc3Cl)no2)n1`, the “hERG current change (%, negative = inhibition) at 1uM” value was determined as 8.1%.
`Cc1cccc(NC(=O)[C@@H]2CCCN2C(=O)OC(C)(C)C)c1`: the “hERG current change (%, negative = inhibition) at 1uM” value stood at 13%.
Under `COC(=O)c1cc(NS(=O)(=O)c2ccc(F)cc2)ccc1N1CCOCC1` stands 30.9%; under `Cl.c1csc(CNc2ccc3c(c2)OCCO3)c1`, 8.55%; under `CSCCC(NC(=O)c1ccccc1Br)C(=O)NNC(=O)c1csc(N2CCOCC2)n1` (stereo not shown), 2.9%.
For `CC1OC(OC2C(CO)OC(OC3C(CO)OC(O)C(O)C3O)C(O)C2O)C(O)C(O)C1N[C@@H]1C=C(CO)[C@@H](O)C(O)[C@H]1O` (stereo partly shown), the “hERG current change (%, negative = inhibition) at 1uM” value is given as 22.1%.
Regarding `O=S(=O)(Nc1ccc2c(c1)nc1n2CCOC1)c1ccc(Cl)cc1`, the “hERG current change (%, negative = inhibition) at 1uM” value was -1.24%.
For the molecule `Cc1cc(C)cc(NC(=O)CSc2nnc(Cc3cccn3C)n2-c2ccc(F)cc2)c1`, the “hERG current change (%, negative = inhibition) at 1uM” value came to 9.47%.
In the case of `Cc1cc(C(F)F)n2nc(C(=O)Nc3ccc(S(=O)(=O)N4CCCCCC4)cc3)nc2n1`, the “hERG current change (%, negative = inhibition) at 1uM” value is reported as 5.81%.
Turning to `Cc1cc(C)n(-c2ccc(C(=O)Nc3sccc3C(N)=O)cc2)n1`, the “hERG current change (%, negative = inhibition) at 1uM” value is -6.94%.
Regarding `O=c1cnnc(SCCc2ccccc2)[nH]1`, the “hERG current change (%, negative = inhibition) at 1uM” value was -1.68%.
Take `COc1ccc(C)cc1Nc1nnc(C)c(=O)[nH]1`: the “hERG current change (%, negative = inhibition) at 1uM” value came out at 12.1%.
With `O=C(Nc1ccc(S(=O)(=O)Nc2ccccc2F)cc1)N1CCCCC1`, the “hERG current change (%, negative = inhibition) at 1uM” value is listed as 15.1%.
Turning to `Cc1ccc(-n2c(C)cc(C(=O)COC(=O)c3c(C)noc3C)c2C)cc1`, the “hERG current change (%, negative = inhibition) at 1uM” value was 10.9%.
In the case of `Cc1cccc(NC(=O)C2C3C=CC(O3)C2C(=O)O)c1` (stereo not shown), the “hERG current change (%, negative = inhibition) at 1uM” value is given as 8.1%.
Regarding `CCN(CC)C(=O)C1=C(C)Nc2ncnn2C1c1cccnc1` (stereo not shown), the “hERG current change (%, negative = inhibition) at 1uM” value worked out at 9.03%.
In the case of `COc1ccccc1NC(=O)OC(C)c1ccc(Cl)cc1` (stereo not shown), the “hERG current change (%, negative = inhibition) at 1uM” value is recorded as -2.34%.
As for `Cc1cc(C)c(C(=O)CN2CCOCC2)c(C)c1.Cl`, the “hERG current change (%, negative = inhibition) at 1uM” value was determined as 7.67%.
Regarding `Fc1cccc(Nc2ncnc3sccc23)c1`, the “hERG current change (%, negative = inhibition) at 1uM” value is recorded as 14.2%.
Turning to `Cn1c(CCN2CCCCCC2)nc2cc(NC(=O)Nc3ccccc3)ccc21`, the “hERG current change (%, negative = inhibition) at 1uM” value is -12.2%.
Regarding `CSc1ccccc1C(=O)NCCOc1cccc(C)c1`, the “hERG current change (%, negative = inhibition) at 1uM” value amounted to 19.4%.
For the molecule `CCc1ccc(NC(=O)Nc2ccon2)cc1`, the “hERG current change (%, negative = inhibition) at 1uM” value was 12.2%.
Under `Cc1cccc(C)c1NC(=S)N1CCOCC1` stands 14.4%; under `O=C(NC1CCCCCC1)c1ccc(=O)n(Cc2ccccc2)n1`, 10.3%.
`O=C(c1cccc(S(=O)(=O)N2CCCC2)c1)N(Cc1ccco1)C1CCS(=O)(=O)C1` (stereo not shown): the “hERG current change (%, negative = inhibition) at 1uM” value turned out to be 6.99%.
`NS(=O)(=O)c1ccc(NC(=O)C2C3C=CC(C3)C2C(=O)O)cc1` (stereo not shown): the “hERG current change (%, negative = inhibition) at 1uM” value is given as 19.1%.
Take `O=P(O)(CCc1ccccc1)CN1CCCCC1`: the “hERG current change (%, negative = inhibition) at 1uM” value was 8.63%.
`COc1ccccc1OCc1nc2ccccc2s1`: the “hERG current change (%, negative = inhibition) at 1uM” value was 11.8%.
On to `O=C(CCC(=O)N1CCCCC1)Nc1ccc(Cl)c(Cl)c1`, for which the “hERG current change (%, negative = inhibition) at 1uM” value is given as 11.1%.
Under `CCCCCCC(=O)c1c([O-])n(-c2ccc(OC)cc2)c(=O)[nH]c1=O.C[NH+](C)C` stands 12.3%; under `COCCN(CCOC)C(=O)c1ccc(NS(=O)(=O)c2ccc3[nH]c(=O)[nH]c3c2)cc1`, 20%.
In the case of `CC1COc2ccccc2N1C(=O)c1ccccc1Cl` (stereo not shown), the “hERG current change (%, negative = inhibition) at 1uM” value is 2.72%.
As for `CCn1c(SCC(=O)N2CCCC(C)C2)nc2c1c(=O)n(C)c(=O)n2C` (stereo not shown), the “hERG current change (%, negative = inhibition) at 1uM” value amounted to 12.4%.
As for `O=[N+]([O-])c1ccccc1/C=C/CN1CCN(Cc2ccc3c(c2)OCO3)CC1`, the “hERG current change (%, negative = inhibition) at 1uM” value is 3.7%.
The figure for `Cc1ccccc1CN1CCN(CCCc2ccccc2)C(CCO)C1` (stereo not shown) is -38%.
For `CCOc1ccccc1/C=C/c1nc2ccccc2[nH]c1=O`, the “hERG current change (%, negative = inhibition) at 1uM” value is 14.7%.
The figure for `FC(F)(F)c1cccc(Sc2nc(-c3ccccc3)nnc2C(F)(F)F)c1` is 10.6%; for `CC(NC(=O)[C@H](C)NC(=O)c1ccco1)c1ccc(S(N)(=O)=O)cc1` (stereo partly shown) it is 15.5%; for `CN(C)c1ccc(/C=C/C(=O)c2cc(Cl)ccc2O)cc1` it is 9.09%.
Regarding `C=CC[C@@H](C)CC(=O)C(CCCN=[N+]=[N-])SOOc1ccccc1` (stereo partly shown), the “hERG current change (%, negative = inhibition) at 1uM” value is reported as 11.2%.
On to `Cc1ccc(NC(=O)c2cc(=O)[nH]c3ccccc23)cc1`, for which the “hERG current change (%, negative = inhibition) at 1uM” value was 18.6%.
`CC(C)(C)OC(=O)N1CCN(C(=O)c2[nH]cnc2C(=O)NCc2ccccc2)CC1`: the “hERG current change (%, negative = inhibition) at 1uM” value came to 3.57%.
On to `O=C(NCc1ccc(F)cc1)c1ccncc1`, for which the “hERG current change (%, negative = inhibition) at 1uM” value turned out to be 12.9%.
Under `COCCCn1c(SCC(=O)N2CCOCC2)nnc1-c1ccco1` stands 16.1%; under `Cc1ccccc1-c1nc2sc(C)c(C)c2c(=O)o1`, 15.7%; under `CCOc1cccc(-c2c(C(=O)N/N=C/c3ccoc3)nnn2-c2nonc2N)c1`, 20.1%.
`COc1nc(Nc2cccc([N+](=O)[O-])c2)nc(OC)n1`: the “hERG current change (%, negative = inhibition) at 1uM” value is given as 11.8%.
Consider `Cc1ccc(C(=O)N/C(=C\c2ccc(-c3cc(Cl)ccc3Cl)o2)C(=O)NCc2cccnc2)cc1`, for which the “hERG current change (%, negative = inhibition) at 1uM” value is reported as 5.35%.
